Experimental data: the supplement of paper PMC11383711
Some of the results follow. Binding of human antibodies (heavy:light variable regions, tested as scFv in one mRNA-display pool) to influenza hemagglutinin, with or without the stem antibody CR9114 bound first. Score = (mean enrichment − median) / interquartile range of that screen; higher = more enriched, 0 = typical non-binder. Active = above the paper's cut-off per screen: stems 28; unblocked H1 Solomon Islands 5, H1 Michigan 3, H3 5, H5 19, H7 2.85, both B 5; blocked 9, 7, H5 10, H7 10, B Phuket 10, B Lee 11.5. Scores are scaled within each screen and are no affinities; replicates correlate at about 0.6 to 0.9, and antibodies rare in the pool are noisier.

Assays:
Assay in all cases: mRNA display binding score; higher = more enriched on the antigen
[1] = target: Influenza A H1N1 A/Michigan/45/2015 hemagglutinin ectodomain
Protocol: (§1)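 A pool of natively paired antibodies, displayed as scFv on mRNA, was selected once on antigen-coated beads and sequenced before and after; two replicates.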

[2] = target: Influenza A H1N1 A/Solomon Islands/3/2006 hemagglutinin ectodomain
Protocol: as §1

[3] = target: Influenza A H3N2 A/Singapore/INFIMH-16-0019/2016 hemagglutinin ectodomain; conditions: antigen blocked with: nothing
Protocol: as §1

[4] = target: Influenza A H5N1 A/Qinghai/1A/2005 hemagglutinin ectodomain
Protocol: as §1

[5] = target: Influenza A H7N9 A/Shanghai/2/2013 hemagglutinin ectodomain
Protocol: as §1

[6] = target: Influenza B/Lee/1940 hemagglutinin ectodomain
Protocol: as §1

[7] = target: Influenza B/Phuket/3073/2013 hemagglutinin ectodomain
Protocol: as §1

[8] = antigen blocked with: 2 µM CR9114 IgG

Measured: mRNA display binding score

B1: K77-2B11 (protein)
chain 1: LVQFQESGPGLVKPSETLSLTCTVSGGSISSSTYYWGWIRQPPGKGLEWIGSIYYDGSTYYNPSLKSRVTISVDTSKSRFSLTLSSVTAADTAIFYCARVAQWLRPGYFDYWGQGTLVTVSS
chain 2: DIVMTQSPDSLAVSLGERATINCKSSQSILYSSINKNYLAWYQQKPGQPPKLLIYWASTRESGVPDRFSGSGSGTDFTLTISSLQAEDVAVYYCQQYYGTPPTFGQGTKLEIK
inactive: [1]; [8] 0.375 | [1]; antigen blocked with: nothing 0.365 | [2]; [8] 0.381 | [2]; antigen blocked with: nothing 0.14 | [3] 0.742 | [4]; [8] 0.142 | [4]; antigen blocked with: nothing -0.164 | [5]; [8] 1.54 | [5]; antigen blocked with: nothing 0.725 | [6]; [8] 0.612 | [6]; antigen blocked with: nothing 0.18 | [7]; [8] 0.707 | [7]; antigen blocked with: nothing 0.307

B2: K77-2H12 (protein)
chain 1: EVQLVESGGGLVQPGGSLRLSCAASGFTFTNYWMTWVRQAPGKGLEWVANIKQDGSDKNYVDSLKGRFTISRDNAKKSLFLQMNSLGAEDTAVYYCARDFSDFGDLYFDYWGQGALVTVSS
chain 2: QSALTQPRSVSGSPGQSVTVSCTGTRSDVGGYNYVSWYQQHPGKAPKLIIYDVSERPSGVPDRFSGSKSGNTASLTISGLQAEDEADYYCCSYAGSYTWVFGGGTKLT
inactive: [1]; [8] 0.22 | [1]; antigen blocked with: nothing -0.558 | [2]; [8] 1.45 | [2]; antigen blocked with: nothing 0.324 | [3] -0.223 | [4]; [8] 0.501 | [4]; antigen blocked with: nothing -0.222 | [5]; [8] 4.26 | [5]; antigen blocked with: nothing -0.137 | [6]; [8] 1.04 | [6]; antigen blocked with: nothing 0.504 | [7]; [8] 0.125 | [7]; antigen blocked with: nothing 0.753

B3: AG12-3A03 (protein)
chain 1: VQLVESGGGLAQPGRSLRLSCRTSGFRFVDYGMSWFRQAPGKGLEWVSFIGSKSYGATKDYAASVRDRFIISRDDSKSIAYLEMNSLKTDDTAIYYCSRVPLLWRNGWDDDYWGQGTLVTVSS
chain 2: DIQMTQSPSSLSASVGDRVTITCRASQDITNYLAWFQQRPGEAPKSLIYGASGLQTGVPSRFSGSGSGTDFTLTINSLQPEDFATYYCQQFYNYPITFGGGTKVEIK
inactive: [1]; [8] 0.997 | [1]; antigen blocked with: nothing -0.319 | [2]; [8] -0.489 | [2]; antigen blocked with: nothing 0.741 | [3] 4.92 | [4]; [8] 0.539 | [4]; antigen blocked with: nothing -0.278 | [5]; [8] 1.64 | [5]; antigen blocked with: nothing -0.481 | [6]; [8] 1.8 | [6]; antigen blocked with: nothing -0.0666 | [7]; [8] 1.49 | [7]; antigen blocked with: nothing -0.155

B4: C1-E04 (protein)
chain 1: VQLQESGPGLVKPSETLSLTCTVSGDSIISSGSYWAWIRQPPGKGLEWIGFVYYSGSTYYSTSLKSRVTISVDTSKNQFSLKLTSVTAADTAVYFCARDRGGEEYYYGMDVWGPGTTVTVSS
chain 2: DIQMTQSPSSLSASVGDRVSITCRASQFIINNLNWYQKKPGKAPWLLIYSASTLQSGVPSRFSGSRSGTDFTLTISSLEPEDFATYYCQQGYSTPHTFGQGTKVEIK
inactive: [1]; [8] -0.539 | [1]; antigen blocked with: nothing -0.493 | [2]; [8] 0.0675 | [2]; antigen blocked with: nothing -0.497 | [3] -0.5 | [4]; [8] -0.703 | [4]; antigen blocked with: nothing -0.246 | [5]; [8] -0.386 | [5]; antigen blocked with: nothing -0.789 | [6]; [8] -0.493 | [6]; antigen blocked with: nothing -0.263 | [7]; [8] -0.45 | [7]; antigen blocked with: nothing -0.325

B5: R95-1H04 (protein)
chain 1: QVQLQESGPGLVKPSETLSLTCSLSSGYIGTYSWNWIRQAPGKGLEWIGYVSNSGSTKYNPSLQSRVTISVDMSKNQFSLELRSVSAADTALYYCARAHYFGSGNFIYGYFYYGMDVWGQGTMVTVSS
chain 2: SYELTQPPSVSVSPGQTASITCSGDKLGDKYACWYQQKPGQSPLLVIYQDTKRPSGVPERFSGSNSGNTATLTINGTQAMDEADYYCQAWDITTHVAFGGGTKLSVL
inactive: [1]; [8] 0.1 | [1]; antigen blocked with: nothing 0.443 | [2]; [8] 0.825 | [2]; antigen blocked with: nothing 0.594 | [3] 0.698 | [4]; [8] 0.115 | [4]; antigen blocked with: nothing 0.292 | [5]; [8] -0.0154 | [5]; antigen blocked with: nothing 0.249 | [6]; [8] 0.0318 | [6]; antigen blocked with: nothing -0.325 | [7]; [8] -0.0339 | [7]; antigen blocked with: nothing 0

B6: 01.q.01 (protein)
chain 1: QVQLQESSPGLVKPSQTLSLKCTVSGGSVSGGRYSWNWLRQPAGKGLEWIGHIYTTGTINYNPSLRSRVTISVDTSKNQFSLKLSSMTAADTAVYFCARAHLPDVGHYYGLDVWGQGTTVTVSS
chain 2: DIQLTQSPSSLSASVGDRVTITCRASQGISSYLAWYQQKPGKAPKLLIYAASTLQSGVPSRFSGSGSGTYFTLTISSLQPEDFATYYCQQLNRDLTFGGGSKVEIK
inactive: [1]; [8] -0.388 | [1]; antigen blocked with: nothing 0.123 | [2]; [8] -0.116 | [2]; antigen blocked with: nothing -0.0307 | [4]; [8] -0.166 | [4]; antigen blocked with: nothing -0.438 | [5]; [8] 2.56 | [5]; antigen blocked with: nothing -0.114 | [6]; [8] 1.38 | [6]; antigen blocked with: nothing -0.25 | [7]; [8] 0.402 | [7]; antigen blocked with: nothing -0.23
active: [3] 54.2

B7: 042-10-2C02 (protein)
chain 1: EVQLVESGGGLVQPGRSLRLSCKASGFKFGDFALSWVRQAPGKGLEWVGFIRSRRSGGTTEYVASVKGRFIISREDSKSIAYLQMNSLKTEDTAVYYCTRERMIDTGVGGHWGQGTLVTVSS
chain 2: DIVMTQSPLSLPVTPGESASISCRSSQSLQHSNGYNYLDWYLQKPGQSPQLLIFLASNRASGVPDRFSASGSGTDFTLHISRVEAEDVGVYYCLQGLQTPFTFGPGTKVDIK
inactive: [1]; [8] -0.058 | [1]; antigen blocked with: nothing 0.0683 | [2]; [8] 0.2 | [2]; antigen blocked with: nothing -0.641 | [3] 0.947 | [4]; [8] -0.307 | [4]; antigen blocked with: nothing -0.318 | [5]; [8] 1.07 | [5]; antigen blocked with: nothing -0.349 | [6]; [8] 0.461 | [6]; antigen blocked with: nothing -0.354 | [7]; [8] -0.0124 | [7]; antigen blocked with: nothing 0.0566

B8: C2-3-G05 (protein)
chain 1: VQLQESGPGLVKPSETLSLTCTVSGGSISYSNFYWGWIRQPPGKGLEWIGSVYYSGTTYYNPSLKSRVTISIDTSKNQISLKLNFVTAADTALYYCSRLQPYTNYGRSHYYFYALDVWGQGTTVTVSS
chain 2: EIVLTQSPVTLSLSPGERATLSCRASQSIATSLAWYQHKPGQTPRLLIFDASERATGIPARFSGSGSGTDFTLTISSLEPEDFAVYYCQERSNWPRLTFGGGTKVEIK
inactive: [1]; [8] -0.409 | [1]; antigen blocked with: nothing -0.449 | [2]; [8] -0.814 | [2]; antigen blocked with: nothing -0.36 | [3] -0.364 | [4]; [8] -0.659 | [4]; antigen blocked with: nothing -0.54 | [5]; [8] -0.915 | [5]; antigen blocked with: nothing -0.218 | [6]; [8] -0.101 | [6]; antigen blocked with: nothing -0.103 | [7]; [8] 0.595 | [7]; antigen blocked with: nothing 0.518

B9: 039-10-5B02 (protein)
chain 1: QVQLQESGPGLVKPPQTLSLTCTVSGGSVSSGTYYWSWIRQPAGKGPEWIGRIYTTGSTDYNPSLKSRVTISIDTSNNRFSLRLNSVTAADTAVYYCARVGPHPTQGVSYFDHWGQGILVTVSS
chain 2: EIVLTQSPVTLSLSPGERATLSCRASQSFSNYLAWYQQKPGQAPRLLIYDASTRATGVPARFSGSGSGTDFTLTISSLEPEDFAVYYCQLRSNWPLFFTFGPGTKVDIK
inactive: [1]; [8] -0.484 | [1]; antigen blocked with: nothing -0.799 | [2]; [8] -0.86 | [2]; antigen blocked with: nothing -0.591 | [3] -0.00162 | [4]; [8] -0.912 | [4]; antigen blocked with: nothing -0.655 | [5]; [8] -0.436 | [5]; antigen blocked with: nothing -0.89 | [6]; [8] 0.659 | [6]; antigen blocked with: nothing -0.312 | [7]; [8] -0.742 | [7]; antigen blocked with: nothing -0.366

B10: W85-3F01 (protein)
chain 1: EVQLVESGGDLVQPGRSLRLSCEASGFTFSSYEMSWVRQPPGKGLEWVSYISSSGATFYYADAVKGRFTISRDNAKNSLYLQMNSLRAEDTAVYYCASLITGYNSYWYWVDHLDSWGHGTLVTVSS
chain 2: DIVMTQSPLSLPVTPGEPASISCRSSQSLLHSNGYNYLDWYLQKPGQSPQLLIYLGSIRASGVPDRFNGSGSGTDFTLKIIRVEAEDVGVYYCMQALQTAFTFGPGTKVDIK
inactive: [1]; [8] 1.25 | [1]; antigen blocked with: nothing 1.79 | [2]; [8] 0.609 | [2]; antigen blocked with: nothing 2.69 | [3] 0.56 | [4]; [8] 4.51 | [4]; antigen blocked with: nothing 1.03 | [5]; [8] 4.45 | [5]; antigen blocked with: nothing 2.07 | [6]; [8] 0.731 | [6]; antigen blocked with: nothing 2.7 | [7]; [8] 2.31 | [7]; antigen blocked with: nothing 2.24

B11: 36.d.02 (protein)
chain 1: QVQLQESGPGLVKPSQTLSLTCIVSGGSISSGDYFWSWIRQPPGKGLEWIAYMYYTGSTYYNPSLKSRVAISVDTSKNHLALKLTSVTAADTAVYYCGRIPRDIVLVPGGSRWAATIDDWGQGILVTVSS
chain 2: EIVMTQSPVSLSLSPGERATLSCRASQSVSSYLAWYQQKPGQAPRLLIYGASNRATDIPARFRGSGSGTDFTLTISSLDPEDFAVYYCQQYTNWPRTFGQGTKVETK
inactive: [1]; [8] -0.269 | [1]; antigen blocked with: nothing 0.434 | [2]; [8] -0.503 | [2]; antigen blocked with: nothing 0.144 | [3] -0.16 | [4]; [8] -0.00422 | [4]; antigen blocked with: nothing 0.333 | [5]; [8] -0.0319 | [5]; antigen blocked with: nothing 0.825 | [6]; [8] -0.233 | [6]; antigen blocked with: nothing -0.352 | [7]; [8] 0.0518 | [7]; antigen blocked with: nothing -0.0675

B12: 013-10-3F02 (protein)
chain 1: QVQLVESGGGVAQPGRSLRLSCAASGFTFSTYGMHWVRQAPGKGLEWVAVISYDGSKRYYAEILKDRFTISRDNSKNTVYLQMNSLRTEDTAVYFCAKEGRPLIVSGTHFFQFYYGMDVWGQGTTVTVSS
chain 2: DIQMTQSPSSLSASVGDRVTISCRASQSIGTYLNWYQQKPGKAPNLLIYGTSTLKSGVPSRFSGSGSGTDFTLTIGSLQPEDFATYFCQQSFSPPLTFGRGTRLEIK
inactive: [1]; antigen blocked with: nothing 0.742 | [2]; [8] -0.319 | [2]; antigen blocked with: nothing -0.133 | [3] -0.377 | [4]; [8] 7.71 | [4]; antigen blocked with: nothing 3.61 | [5]; [8] 0.469 | [5]; antigen blocked with: nothing -0.796 | [6]; [8] 1.85 | [6]; antigen blocked with: nothing 0.0969 | [7]; [8] -0.158 | [7]; antigen blocked with: nothing 0.265
active: [1]; [8] 42.3
